Laboratory results taken from PubChem BioAssay AID1508624 (National Center for Advancing Translational Sciences (NCATS), 2021).
The whole screen tested about 48,000 compounds, of which about 120 (0.25%) were called active. About 4% were inconclusive and are not listed. The call rests on the fitted dose curve; in most records, active means well fitted activation curve with a large enough effect; inconclusive means small, poorly fitted or top-dose-only effect, or another doubt; inactive means no such curve, though single readings can be large or run the other way. The list shows a part of the results.

assay: Primary qHTS for Identification of Small Molecule Activators of Huntingtin-Antisense Promoter Activity; conditions: HEK293 HTT-AS promoter firefly luciferase reporter, 24 h; series mostly up to 57.5 µM; activity change, positive = activation: at the top concentration; further: nearly all actives have a fitted effect of over 55% in size
Summary of the method: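 HEK293 luciferase promoter-reporter cells (2,500/well) plated 24 h, then compounds added at up to 57.5 uM final for 24 h at 37 °C. Firefly luminescence by Dual-Glo, normalized to vehicle (0%) and zero RLU (-100%).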

Structure (SMILES)	activity change, positive = activation
COc1ccc(N2CCN(CCCNC(=O)Nc3ccccc3Cl)CC2)cc1	inactive: -16.5%
COc1ccc(CCNC(=O)CN(c2ccc(C)cc2)S(=O)(=O)c2ccc(OC)cc2)cc1	inactive: -22.3%
CCOc1ccc(CN2C(=O)c3ccccc3Sc3ccc(C(=O)N4CCN(C)CC4)cc32)cc1	inactive: -19.9%
CCC(CC)C(=O)Nc1c(C(=O)N2CCN(c3ccccc3F)CC2)oc2ccccc12	inactive: -32.3%
CCC(Sc1nc2cc(OC)c(OC)cc2c(=O)n1Cc1ccc(Cl)cc1)C(=O)NCCOC (configuration not stated)	inactive: -1.67%
Cc1cc(NC(=O)c2cccnc2)cc(-c2nc3cc(Cl)ccc3o2)c1O	inactive: -2.04%
COc1ccc(OC)c(NC(=O)CSC2=Nc3ccccc3C3=NC(CC(=O)NCc4ccco4)C(=O)N23)c1 (configuration not stated)	inactive: -26.7%
COc1ccc(NC(=O)c2sc3nc(C)c(C(=O)Nc4ccc(C)cc4C)c(-c4ccc(Cl)cc4)c3c2N)cc1	inactive: -15.9%
O=C(NCc1ccc2c(c1)CCN2C(=O)c1ccncc1)c1cccc(Cl)c1	inactive: -23.7%
CN(C(=O)CCCOc1ccc2[nH]c(=O)ccc2c1)C1CCCCC1	inactive: -17.1%
NNC(=O)c1ccncc1	inactive
Cc1oc(-c2ccccc2F)nc1CS(=O)(=O)CC(=O)N1CCN(c2cccc(C(F)(F)F)c2)CC1	inactive: -54.5%
N#Cc1ccc(C(=O)Nc2ccc(Cl)c(-c3nc4cc(Cl)ccc4o3)c2)c(F)c1	inactive: 1.63%
COc1ccc(N2CCN(C(=O)Cn3ncc4c3-c3cc(C)ccc3OC4)CC2)cc1	inactive: -14.9%
Cc1ccc(NC(=O)c2cccc(NC(=O)N3CCSc4ncccc43)c2)cc1Cl	inactive: 14%
COc1ccc(-c2nc3sc(CCNC(=O)C(=O)Nc4cc(C)cc(C)c4)c(C)n3n2)cc1	inactive: -6.78%
CCN(C(=O)c1nn(-c2ccc(OC)c(Cl)c2)c(=O)c2c1c1ccccc1n2C)c1cc(OC)ccc1OC	inactive: -14.5%
Cc1ccc(C(=O)NCC(c2cccs2)S(=O)(=O)c2cccs2)cc1C (configuration not stated)	inactive: -15.6%
CCOc1ccc(NC(=O)CN(C)S(=O)(=O)c2ccc3c(c2)c(=O)n(C)c(=O)n3C)cc1	inactive: -19%
COc1cc(OC)cc(C(=O)Nc2cc(-c3nc4ccccc4s3)ccc2OC)c1	inactive: 3.62%
CC(=O)c1ccc(NC(=O)CSc2cn(CC(=O)N3CCCCC3)c3ccccc23)cc1	inactive: -16.5%
CCOc1ccc(-c2cn(-c3ccc(OC)cc3)c(SCC(=O)Nc3ccccc3Cl)n2)cc1	inactive: -19.7%
COc1ccc(F)cc1S(=O)(=O)NCCc1csc(-c2ccc(Cl)cc2)n1	inactive: -30.6%

Structure (SMILES)	activity change, positive = activation
CCc1ccc(NC(=O)C2CCN(c3nnc(-n4c(C)ccc4C)s3)CC2)cc1	inactive: -18.8%
CCC(=O)Nc1sc2c(c1C(=O)Nc1ccc(OC)cc1)CCC(C(C)(C)C)C2 (configuration not stated)	inactive: -3.67%
O=C(Nc1ccc(S(=O)(=O)N2CCC(c3nc4ccccc4s3)CC2)cc1)c1ccc(F)cc1	inactive: -11.9%
Cc1ccc(NC(=O)C2Cc3ccccc3N2C(=O)c2ccccc2)cc1Cl (configuration not stated)	inactive: -12.1%
Cc1cc(C)c(S(=O)(=O)NCCc2cc3c(C)ccc(C)c3[nH]c2=O)c(C)c1	inactive: 1.37%
Cc1ccc(C)c(-n2nnc(-c3nc(-c4ccc(Cl)cc4)no3)c2N)c1	inactive: 27%
CCCC(=O)NCCc1nc2ccccc2n1Cc1c(F)cccc1Cl	inactive: -18.6%
CC(=O)c1cc(-c2ccccc2)n(CC(=O)NC2CCCCCC2)c1C	inactive: -7.33%
O=C(Cn1c(=O)n(Cc2cccs2)c(=O)c2cccnc21)Nc1ccccc1F	inactive: -13.5%
Cc1cc(O)c(C(c2cccc(F)c2)N2CCC(C)CC2)c(=O)n1Cc1ccco1 (configuration not stated)	inactive: 5.51%
O=C(NCCc1ccc(Cl)cc1)c1cccn1-c1nnc(N2CCCCC2)s1	inactive: -19.9%
COc1ccc(N2CCN(C(=O)CSCc3nc(-c4ccccc4Cl)oc3C)CC2)cc1	inactive: -41.2%
CCc1nc(-c2cc(S(=O)(=O)N3CCN(c4ccc(F)cc4)CC3)ccc2OC)no1	inactive: -19.3%
CN(C1CCCCC1)S(=O)(=O)c1ccc(C(=O)Nc2sc3c(c2C(N)=O)CC(C)(C)NC3(C)C)cc1	inactive: -7.95%
Cc1cccc(NC(=O)CSc2nc3c(c(=O)[nH]2)CN(Cc2ccc4c(c2)OCO4)CC3)c1C	inactive: 4.21%
CCc1ccc(-n2c(=O)c3cccnc3n2CC(=O)NCc2ccc(F)cc2)cc1	inactive: -12.9%
O=C(NCc1cccc(F)c1)c1ccc(CS(=O)c2ccccc2Cl)o1 (configuration not stated)	inactive: -9.84%
CCOC(=O)N1CCc2c(sc3c2c(=O)n(Cc2ccccc2)c(=O)n3CC(=O)Nc2c(C)cccc2C)C1	inactive: -20.7%
Cn1c(=O)c(=O)n(C)c2cc(S(=O)(=O)N3CCN(c4ccccc4F)CC3)ccc21	inactive: -31.4%
COc1ccc(C(=O)NCC(c2cccnc2)N2CCN(c3ccc(F)cc3)CC2)cc1 (configuration not stated)	inactive: -26.2%
O=C(NCC(c1ccc(Cl)cc1)N1CCCCC1)c1ccc(F)cc1 (configuration not stated)	inactive: -5.15%
COc1cccc(-c2cc(C(F)(F)F)nc(-n3nc(C)c(Br)c3C)n2)c1	inactive: -16.7%
Nc1nc(N)c(S(=O)(=O)c2ccccc2)c(Nc2ccc(Br)cc2)n1	inactive: -38.4%

Structure (SMILES)	activity change, positive = activation
Cc1ccc(-n2c(SCc3ccccc3F)nc3[nH]ncc3c2=O)cc1C	inactive: -3.38% [at 11.5 µM, percent change from vehicle, -100% = no light]
COc1ccccc1CNC(=O)c1cccn1-c1nnc(N2CCCC2)s1	inactive: 4.12%
Cc1cccc(NC(=O)Cn2nc(-c3ccc(Cl)cc3)c3ccccc3c2=O)c1	inactive: -17.2%
O=C(CSc1ccc2nc(-c3ccccc3)cn2n1)Nc1ccccc1C(F)(F)F	inactive: -34.3%
Cc1cccc(NC(=O)C(=O)c2cc(C)n(-c3ccccc3)c2C)c1C	inactive: -2.58%
CCOc1cccc2cc(-c3nc4sc(C(=O)Nc5ccc(C)cc5)c(C)c4c(=O)[nH]3)c(=O)oc12	inactive: -14.1%
Clc1cccc(-c2nnc(CN3CCN(c4ccccn4)CC3)o2)c1	inactive: -3.04%
Cc1cc(S(=O)(=O)Nc2cc3c(cc2N2CCOCC2)n(C)c(=O)n3C)ccc1F	inactive: -15.1%
COC(=O)c1c(SCC(=O)Nc2cccc(C(F)(F)F)c2)[nH]c2ccccc2c1=O	inactive: 9.65%
CCc1nc2ccc(C(=O)NCCc3ccc(SC)cc3)cc2nc1CC	inactive: 28.4%
COc1ccc(NC(=O)C(CC(C)C)NC(=O)C2CCCCC2)c(OC)c1 (configuration not stated)	inactive: -10.6%
COc1ccc(-n2c(=O)c3ccccc3n(Cc3ccc(F)cc3Cl)c2=O)cc1OC	inactive: -9.7%
COc1ccc(NC(=O)C2CCN(C(=O)c3sc4nc[nH]c(=O)c4c3C)CC2)c(OC)c1	inactive: -1.4%
CCc1ccccc1N1CC(c2nnc(NC(=O)c3ccco3)s2)CC1=O (configuration not stated)	inactive: -13%
CCN(CC)S(=O)(=O)c1ccc2c(c1)N(CC(=O)N1CCN(c3cc(Cl)ccc3C)CC1)C(=O)CO2	inactive: -10.6%
Cc1cccc(N2CCN(c3nc4ccccc4c4nc(-c5ccccc5)nn34)CC2)c1C	inactive: -5.75%
CC(=O)OCc1cnc(C)c2oc(=O)c(C(=O)Nc3ccc(F)cc3C)cc12	inactive: -10.4%
CC(=O)Nc1nonc1-c1nnc(SCC(=O)Nc2ccccc2Cl)n1C	inactive: -13.1%
COc1cc(NC(=O)c2cc(-c3ccccc3O)no2)cc(OC)c1OC	inactive: -30%
CCOc1ccc(CNC(=O)C2CCN(C3=NS(=O)(=O)C(c4ccc(C)cc4)=C3CC)CC2)cc1	inactive: -41%
COc1ccc(C2CC(=O)c3cc(-c4nc(-c5ccc(Cl)cc5)cs4)c(=O)[nH]c3C2)cc1 (configuration not stated)	inactive: -4.4%
Cc1ccc(C(=O)Nc2ccc(-n3c(C)nc4ccccc4c3=O)cc2)cc1[N+](=O)[O-]	inactive: -27.3%
CCN(C(=O)CCS(=O)(=O)c1cccc2nsnc12)c1cccc(C)c1	inactive: -14.2%

Structure (SMILES)	activity change, positive = activation
CCOC(=O)c1ccc(N2C(=O)c3n[nH]c(-c4cccs4)c3C2c2ccc(O)c(OC)c2)cc1 (configuration not stated)	inactive: -64.6%
O=C(Nc1nc2n(n1)C(c1ccc(F)cc1)C=C(c1ccc(Cl)cc1)N2)c1ccco1 (configuration not stated)	inactive: -23.1%
CCOc1ccc2oc(=O)cc(CN3CCN(c4ccc(OC)cc4)CC3)c2c1	inactive: -27.1%
CCN(C(=O)c1cc2c(s1)-c1c(C)cccc1OC2)c1cc(C)ccc1C	inactive: -18.3%
COc1ccc(OC)c(NC(=O)Cn2c(=O)oc3cc(S(=O)(=O)NCc4ccccc4)ccc32)c1	inactive: -17.1%
O=C(NCC12CC3CC(CC(C3)C1)C2)c1cc2nc(-c3ccc(Cl)cc3)cc(C(F)(F)F)n2n1	inactive: -14.2%
Cc1cc2oc(C(=O)N(Cc3ccccc3)C3CCS(=O)(=O)C3)cc(=O)c2cc1C (configuration not stated)	inactive: 11.6%
CCOc1ccc(S(=O)(=O)n2nc(C)c(S(=O)(=O)N3CCCCCC3)c2C)cc1	inactive: -12.3%
CN1CCN(c2ncc3c(n2)CCN(Cc2ccccc2Cl)C3)CC1	inactive: -13.2%
Cc1ccccc1C(=O)Nc1ccccc1C(=O)OCc1cc(=O)n2nc(C3CC3)sc2n1	inactive: 10.3%
Cc1ccc(NC(=O)CN2C(=O)C(c3ccccc3)=NC2(C)C)cc1C	inactive: -4.15%
CCc1ccc(-n2c(=O)c3cccnc3n2CC(=O)N(CC)c2cccc(C)c2)cc1	inactive: -20.7%
COc1cccc(C(=O)Nc2ccc3c(c2)CCCN3C(=O)c2cccs2)c1OC	inactive: 0%
Cc1ccc(S(=O)(=O)OCC(=O)Nc2ccc(C(=O)O)c(O)c2)cc1	inactive: -12.2%
Cc1cc(-c2nc3ncccc3o2)ccc1NC(=O)COc1ccc(C(C)(C)C)cc1	inactive: 17.2%
Cc1[nH]c(C)c(Cl)c(=O)c1Cl	inactive: -6.95% [at 25.1 µM, percent change from vehicle, -100% = no light]
Cc1c2cnn(-c3ccccc3)c(=O)c2c(C)n1CC(=O)NCc1ccc(Cl)cc1	inactive: -13.1%
CCOc1ccc(Nc2c(S(=O)(=O)c3ccc(C)cc3)cnc3ccccc23)cc1	inactive: -35.9%
CCc1ccc(NC(=O)CSc2nnc(-c3nonc3NC(C)=O)n2-c2ccccc2)cc1	inactive: -29.2%
CC1(C)O[C@@H]2C[C@H]3[C@@H]4C[C@H](F)C5=CC(=O)CC[C@]5(C)[C@H]4[C@@H](O)C[C@]3(C)[C@]2(C(=O)CO)O1	inactive: -4.55%
COc1cccc(Cn2c(SCc3ccc(C(=O)N4CCC(C)CC4)cc3)nc3ccncc32)c1	inactive: -29.8%
CCC(Cc1ccccc1)NC(=O)c1csc2c1CCCCC2 (configuration not stated)	inactive: -12.5%
COc1cc(NC(=O)CCCSc2nc(-c3ccco3)cc(C(F)(F)F)n2)cc(OC)c1OC	inactive: -31.2%
